From paper PMC4336329 (PLoS ONE, 2015)
The campaign covered roughly 310,000 compounds. About 14,000 (4.5%) showed an effect of 50% or more. The effect is printed as a negative number. The list shows a part of the results.

Each compound was assayed against human ether-à-go-go-related gene (hERG) potassium channel (human, UniProt Q12809) (assay: primary screen, population patch clamp on CHO cells stably expressing hERG).
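Also: peak tail current of the secondary pulse compared with the same well before compound.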

human ether-à-go-go-related gene (hERG) potassium channel, sequence (Q12809 whole entry, looked up): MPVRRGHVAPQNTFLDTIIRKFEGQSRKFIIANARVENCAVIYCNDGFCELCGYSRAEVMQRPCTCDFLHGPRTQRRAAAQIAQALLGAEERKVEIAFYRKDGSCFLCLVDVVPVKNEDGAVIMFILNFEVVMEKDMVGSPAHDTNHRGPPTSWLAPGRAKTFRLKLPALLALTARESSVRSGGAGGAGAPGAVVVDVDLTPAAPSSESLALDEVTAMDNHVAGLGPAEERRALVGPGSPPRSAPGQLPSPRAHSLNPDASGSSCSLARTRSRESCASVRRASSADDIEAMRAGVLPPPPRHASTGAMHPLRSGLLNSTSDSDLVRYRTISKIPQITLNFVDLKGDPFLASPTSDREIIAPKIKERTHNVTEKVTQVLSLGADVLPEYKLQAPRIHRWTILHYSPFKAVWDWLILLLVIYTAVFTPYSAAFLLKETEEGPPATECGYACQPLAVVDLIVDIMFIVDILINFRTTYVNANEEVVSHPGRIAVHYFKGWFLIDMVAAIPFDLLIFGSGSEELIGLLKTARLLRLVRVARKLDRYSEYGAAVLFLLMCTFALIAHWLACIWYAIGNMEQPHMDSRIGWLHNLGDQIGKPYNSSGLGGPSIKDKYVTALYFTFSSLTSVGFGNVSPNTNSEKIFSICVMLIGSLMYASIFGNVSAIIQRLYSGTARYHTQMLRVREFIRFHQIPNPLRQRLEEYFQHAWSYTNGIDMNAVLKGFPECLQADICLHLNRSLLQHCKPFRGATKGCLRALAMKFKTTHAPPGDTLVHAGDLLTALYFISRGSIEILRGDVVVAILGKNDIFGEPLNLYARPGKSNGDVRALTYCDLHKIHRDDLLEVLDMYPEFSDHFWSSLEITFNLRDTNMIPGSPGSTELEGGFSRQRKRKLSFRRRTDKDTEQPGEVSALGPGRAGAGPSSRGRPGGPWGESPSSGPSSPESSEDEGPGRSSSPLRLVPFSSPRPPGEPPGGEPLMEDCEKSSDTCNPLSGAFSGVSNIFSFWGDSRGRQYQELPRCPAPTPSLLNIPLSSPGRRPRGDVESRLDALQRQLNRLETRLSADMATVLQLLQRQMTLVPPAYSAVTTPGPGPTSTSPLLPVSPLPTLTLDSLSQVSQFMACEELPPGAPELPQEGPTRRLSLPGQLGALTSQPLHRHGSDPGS

Compound | hERG current change (%, negative = inhibition) at 10uM
O=C1Nc2ccccc2C1c1ncc(C(F)(F)F)cc1Cl (stereo not shown) | 23.2%
CC(=O)Nc1ccc(OCC(=O)NCCc2ccccc2)cc1 | 21.8%
C/C=C/c1ccc(OCCCNC2CCCC2)c(OC)c1.O=C(O)C(=O)O | -57.6%
Nn1c(SCC(=O)N2CCN(S(=O)(=O)c3ccccc3)CC2)nnc1-c1cccs1 | -10.1%
Cc1cc(C)n(-c2nc(-c3cccc(Cl)c3)cs2)n1 | 5.87%
COc1ccc([N+](=O)[O-])cc1NC(=O)COC(=O)C1CC1 | 9.71%
COc1ccc(/C(C)=N/OCC(=O)N=Nc2c(O)[nH]c3ccc(Br)cc23)cc1 | 9.9%
O=C1CN2NC(=S)N(c3ccccc3)C2=CN1c1ccc(Cl)cc1 | 15.2%
CC(C)Oc1ccc(CNC(=O)CCCN2C(=O)C(c3ccccc3)Oc3cccnc32)cc1 (stereo not shown) | 18.2%
CC1CC(c2ccccc2)=Nc2ccccc2N1 (stereo not shown) | 5.46%
CCN(CC)S(=O)(=O)c1ccc(Cl)c(C(=O)Nc2cccnc2)c1 | -55.8%
Cc1ccnc2ccc(SC(F)(F)F)cc12 | -0.416%
CC(C)COP(=O)(OCC(C)C)C(O)c1ccc(F)cc1 (stereo not shown) | 0.0329%
CC(C)(C)C(=O)NC1CCN(C(=O)N2CCCC2)CC1 | 10.2%
CC(=O)NC(=S)c1c(N)n(Cc2ccccc2)c(=O)n(C)c1=O | -4.74%
Cc1cnc(C(=O)OCC(=O)C23CC4CC(CC(C4)C2)C3)cn1 | -1.92%
COc1ccc(NC(=O)c2cccc(N3C(=O)c4cccc([N+](=O)[O-])c4C3=O)c2)cc1 | 9.88%
Cc1ccc(NC(=O)COC(=O)CN2C(=O)NC3(CCCC3)C2=O)cc1S(=O)(=O)N(C)C | 9.09%
C[C@H](NC(=O)c1cc2cc(Cl)ccc2n1C)C(=O)N1CCC[C@H]1C(=O)O | 13.7%
CN(C)C=O.NS(=O)(=O)c1cccc(NC(=O)CSc2nc3nc(-c4cccs4)cc(C(F)(F)F)c3c(=O)[nH]2)c1 | 7.85%

Compound | hERG current change (%, negative = inhibition) at 10uM
CNC(=S)N(Cc1cc2cc(C)cc(C)c2[nH]c1=O)C1CCCC1 | -3.94%
O=C(CSc1nnc2ccc(-c3ccc(F)cc3)nn12)N1CCCC1 | -13.5%
COc1ccccc1NC(=O)CSc1nnc(-c2ccoc2C)o1 | 4%
CCCCn1nnnc1NCc1ccc(C)s1 | 9.11%
CCc1nnc2c(N(C)S(=O)(=O)c3ccc(C)cc3)nc3ccccc3n12 | 0.622%
CCN(CC)S(=O)(=O)c1ccc(NN=C(C#N)C#N)cc1 | -14.9%
COc1ccccc1CCc1nnc(CCC(=O)N(C)Cc2ccncc2C)o1 | 4.14%
Cc1ccc(Cl)cc1NC(=O)C1COc2ccccc2O1 (stereo not shown) | 18%
CC1Sc2ccc(S(=O)(=O)CCC(=O)NC3CCCCCC3)cc2NC1=O (stereo not shown) | 13%
C=CCn1c(O)c(/C(C)=N/N2CCN(C)CC2)c(=O)[nH]c1=O | 10.4%
O=C(NC(=S)NCC1CCCO1)c1ccccc1 (stereo not shown) | 9.2%
CCOc1ccc(-c2nc(CSc3nnc(C)s3)cs2)cc1OC | -8.03%
Cl.c1ccc(CNc2ccc3c(c2)ncn3C2CCCCC2)nc1 | -34.4%
O=C(CCC(=O)Nc1cccc(C(F)(F)F)c1)NCC1CCCO1 (stereo not shown) | 11.1%
O=C1NCCN(Cc2ccoc2)C1CC(=O)N(CCO)Cc1ccccc1 (stereo not shown) | 18%
CCOC(=O)c1c(-c2cccs2)csc1NC(=O)CCCC(=O)O | -5.65%
CC(=O)O[C@@H]1[C@H]2[C@@H](C[C@@H](C)[C@@H]3CCC(=O)[C@@]13C)OC(=O)[C@@H]2C | 7.87%
Cc1ccccc1OCc1nc(-c2ccc(-n3cccc3)cc2)no1 | 2.66%
O=C(Nc1nccs1)c1ccccn1 | -3.04%
O=C(NCCS(=O)(=O)N1CCN(c2ccccc2)CC1)c1cccc(F)c1 | 7.52%

Compound | hERG current change (%, negative = inhibition) at 10uM
CC(Cn1cncn1)NC(=O)c1cc(COc2cccc(C(F)(F)F)c2)on1 (stereo not shown) | 2.2%
Cc1c(/N=C(\[O-])Nc2ccc(Br)cc2)sn[n+]1C | -14.3%
O=C(/C=C/c1cccs1)Nc1sc2c(c1C(=O)O)CCCC2 | 28.5%
COc1ccc(NC(=O)c2ccc(NC3=NC4CS(=O)(=O)CC4S3)cc2)cc1 (stereo not shown) | 6.58%
Cc1cc(C)c(OCC(=O)OC(C)C(=O)NC2CC2)c(C)c1 (stereo not shown) | 20.9%
O=C(NC(=S)Nc1ccccc1[N+](=O)[O-])c1ccccc1Cl | 11.7%
CCn1c(SCC(=O)Nc2ccc(OC)cc2)nc2c(c1=O)SCC2 | 0.605%
Cc1c(Cl)cccc1NC(=S)NCC(O)c1ccccc1 (stereo not shown) | 4.18%
COc1ccccc1OCCC(=O)NNC(=O)c1ccccc1F | 10.3%
COC(=O)c1nnn(-c2nonc2N)c1-c1cccs1 | -10.7%
CCOc1ccccc1NC(=O)C1CCCCN1S(=O)(=O)c1ccccc1 (stereo not shown) | -3.03%
CCCCc1cn([C@@H](CCCCN)C(=O)N2CCNCC2)nn1.Cl | 18.8%
CCN(CC(=O)NCCCN1CCOCC1)S(=O)(=O)c1ccc(F)cc1 | 15.7%
COc1ccc(C2SCC(=O)Nc3c2c(=O)[nH]n3C2CCCCCC2)cc1OC (stereo not shown) | -5.65%
CCOc1ccccc1NC(=O)C1CCC(=O)N1S(=O)(=O)c1ccc(C)cc1 (stereo not shown) | -0.512%
CCC(C)(C)C1CCc2[nH]nc(C(=O)NC3CCCCC3)c2C1 (stereo not shown) | 9.13%
O=C(Cn1cncn1)N/N=C/c1ccc(Cl)cc1 | 11.4%
COc1ccc(C2C(C(C)=O)=C(Nc3ccccc3)CC(C)(O)C2C(C)=O)cc1OC (stereo not shown) | -23.9%
